The text below walks through data of a collection of fitness landscapes (doi:10.1126/science.1257360).

First the molecules themselves.
B1: PhoQ; a variant is named by its letters at X, in order, P23837 (parent)
chain: MKKLLRLFFPLSLRVRFLLATAAVVLVLSLAYGMVALIGYSVSFDKTTFRLLRGESNLFYTLAKWENNKLHVELPENIDKQSPTMTLIYDENGQLLWAQRDVPWLMKMIQPDWLKSNGFHEIEADVNDTSLLLSGDHSIQQQLQEVREDDDDAEMTHSVAVNVYPATSRMPKLTIVVVDTIPVELKSSYMVWSWFIYVLSANLLLVIPLLWVAAWWSLRPIEALAKEVRELEEHNRELLNPATTRELTSLVRNLNRLLKSERERYDKYRTTLTDLTHSLKTPLXXLQXXLRSLRSEKMSVSDAEPVMLEQISRISQQIGYYLHRASMRGGTLLSRELHPVAPLLDNLTSALNKVYQRKGVNISLDISPEISFVGEQNDFVEVMGNVLDNACKYCLEFVEISARQTDEHLYIVVEDDGPGIPLSKREVIFDRGQRVDTLRPGQGVGLAVAREITEQYEGKIVAGESMLGGARMEVIFGRQHSAPKDE

The other results are listed elsewhere or left out. Where only a bound is given, the exact number is not on record here.

The variants in this test derive from B1. In words: enrichment ratio after two sorts for PhoP signalling (ratio (wild type AVST 3.29)); higher = more functional. Conditions: with PhoP (E. coli).
For the variant GAQR, the enrichment ratio is no more than 0.25.

Take SVQS: the enrichment ratio is no more than 0.25.

Take GFCV: the enrichment ratio is no more than 0.25.

In the case of IPMQ, the enrichment ratio is no more than 0.25.

For the variant TYAG, the enrichment ratio is no more than 0.25.

For the variant RTRT, the enrichment ratio was no more than 0.25.

In the case of LNWM, the enrichment ratio was no more than 0.25.

As for KPEG, the enrichment ratio was no more than 0.25.

For YFHG, the enrichment ratio is no more than 0.25.

In the case of KDCQ, the enrichment ratio was no more than 0.25.

As to HWIS, the enrichment ratio is no more than 0.25.

For VFVA, the enrichment ratio was no more than 0.25.

Consider QRIA, for which the enrichment ratio is no more than 0.25.

For AEYW, the enrichment ratio is no more than 0.25.

With NMLG, the enrichment ratio is no more than 0.25.

For the variant RSHM, the enrichment ratio is no more than 0.25.

For PFYS, the enrichment ratio was no more than 0.25.

As to NRHP, the enrichment ratio is no more than 0.25.

With RKAT, the enrichment ratio was no more than 0.25.

For PGSQ, the enrichment ratio is no more than 0.25.

For the variant QVTL, the enrichment ratio was no more than 0.25.

Consider DTLN, for which the enrichment ratio was no more than 0.25.

As for QVMI, the enrichment ratio was no more than 0.25.

LTHV: the enrichment ratio is no more than 0.25.

As for NKIM, the enrichment ratio is no more than 0.25.

For the variant MEHL, the enrichment ratio was no more than 0.25.

For the variant WFEI, the enrichment ratio was no more than 0.25.

On to DRNA, for which the enrichment ratio was no more than 0.25.

Turning to NRGF, the enrichment ratio was no more than 0.25.

For the variant SANY, the enrichment ratio is no more than 0.25.

As to PETQ, the enrichment ratio was no more than 0.25.

With QEKF, the enrichment ratio was no more than 0.25.

With NVKR, the enrichment ratio was no more than 0.25.

For the variant KHMG, the enrichment ratio was no more than 0.25.

Regarding SVMM, the enrichment ratio turned out to be 4.93.

On to HEGW, for which the enrichment ratio is no more than 0.25.

Regarding YVRM, the enrichment ratio was no more than 0.25.

On to ESDS, for which the enrichment ratio was no more than 0.25.

With CLYQ, the enrichment ratio was no more than 0.25.

Regarding TWFQ, the enrichment ratio is no more than 0.25.

AKGV: the enrichment ratio is 1.7.

On to GVCT, for which the enrichment ratio is no more than 0.25.

Regarding PVSM, the enrichment ratio is no more than 0.25.

Take LGDT: the enrichment ratio was no more than 0.25.

For the variant RIAE, the enrichment ratio is no more than 0.25.

For AQEC, the enrichment ratio was no more than 0.25.

For DTGH, the enrichment ratio is no more than 0.25.

As to WQTT, the enrichment ratio was no more than 0.25.

Consider HGPL, for which the enrichment ratio was no more than 0.25.

Consider ARDM, for which the enrichment ratio was no more than 0.25.

As to TTHL, the enrichment ratio worked out at 11.

As for LNKV, the enrichment ratio was no more than 0.25.

In the case of HNDW, the enrichment ratio is no more than 0.25.

As for PFMF, the enrichment ratio was no more than 0.25.

Regarding FNNK, the enrichment ratio is no more than 0.25.

With VSAD, the enrichment ratio is no more than 0.25.

RLCF: the enrichment ratio was no more than 0.25.

RSEI: the enrichment ratio is no more than 0.25.

On to GQEA, for which the enrichment ratio is no more than 0.25.

As for MMSR, the enrichment ratio is no more than 0.25.

As for DRRS, the enrichment ratio is no more than 0.25.

In the case of VGPW, the enrichment ratio was no more than 0.25.

As to WLTI, the enrichment ratio is no more than 0.25.

Consider ACTK, for which the enrichment ratio was determined as 4.69.

As for SHTS, the enrichment ratio is no more than 0.25.

Consider WRNP, for which the enrichment ratio is no more than 0.25.

For TTSN, the enrichment ratio came out at 11.1.

Consider QHPV, for which the enrichment ratio is no more than 0.25.

In the case of DIDW, the enrichment ratio was no more than 0.25.

For KFGI, the enrichment ratio is no more than 0.25.

Consider INAF, for which the enrichment ratio was no more than 0.25.

On to KPCY, for which the enrichment ratio is no more than 0.25.

As to AWPY, the enrichment ratio is no more than 0.25.

In the case of RQRK, the enrichment ratio was no more than 0.25.

On to LVVM, for which the enrichment ratio is no more than 0.25.

Take FNNH: the enrichment ratio is no more than 0.25.

Turning to KRRD, the enrichment ratio is no more than 0.25.

Regarding YEEM, the enrichment ratio is no more than 0.25.

Regarding WKYH, the enrichment ratio is no more than 0.25.

For the variant FGVY, the enrichment ratio was no more than 0.25.

Regarding INLC, the enrichment ratio is no more than 0.25.

With WITG, the enrichment ratio is no more than 0.25.

For WQSP, the enrichment ratio was no more than 0.25.

For the variant GAPH, the enrichment ratio was no more than 0.25.

With LDFD, the enrichment ratio is no more than 0.25.

For the variant HHYS, the enrichment ratio was no more than 0.25.

On to NWMC, for which the enrichment ratio was no more than 0.25.

Regarding WNQH, the enrichment ratio was no more than 0.25.

As to EQWG, the enrichment ratio is no more than 0.25.

Take GLYN: the enrichment ratio is no more than 0.25.

In the case of QAHY, the enrichment ratio was no more than 0.25.

On to MGSM, for which the enrichment ratio amounted to 8.17.

For MNCM, the enrichment ratio was no more than 0.25.

For the variant IQSI, the enrichment ratio is no more than 0.25.

For the variant GQVG, the enrichment ratio is 1.55.

On to GGNP, for which the enrichment ratio is no more than 0.25.

On to NHHL, for which the enrichment ratio is no more than 0.25.

As to DNFM, the enrichment ratio was no more than 0.25.

In the case of ICCD, the enrichment ratio is no more than 0.25.

As for QHDP, the enrichment ratio is no more than 0.25.

For SMVT, the enrichment ratio is 2.85.

For FYHT, the enrichment ratio is no more than 0.25.

Take ETNH: the enrichment ratio is no more than 0.25.

As for PKFL, the enrichment ratio was no more than 0.25.

Turning to YMIY, the enrichment ratio was no more than 0.25.

In the case of GWVL, the enrichment ratio is no more than 0.25.

As to LWHW, the enrichment ratio is no more than 0.25.

For the variant RFLI, the enrichment ratio was no more than 0.25.

On to VNRC, for which the enrichment ratio was no more than 0.25.

Turning to DGMH, the enrichment ratio was no more than 0.25.

With WCYS, the enrichment ratio was no more than 0.25.

As for DQVE, the enrichment ratio is no more than 0.25.

Regarding TDYW, the enrichment ratio is no more than 0.25.

Regarding IPLM, the enrichment ratio was no more than 0.25.

As to TQVS, the enrichment ratio amounted to 8.82.

As for WNPS, the enrichment ratio is no more than 0.25.

For LNQH, the enrichment ratio was no more than 0.25.

As for RPQV, the enrichment ratio was no more than 0.25.

As to TQGN, the enrichment ratio amounted to 4.74.

As for YHSS, the enrichment ratio was no more than 0.25.

With FNRI, the enrichment ratio was no more than 0.25.

On to YWIE, for which the enrichment ratio is no more than 0.25.

Consider IDND, for which the enrichment ratio is no more than 0.25.

Turning to GWMI, the enrichment ratio was no more than 0.25.

Consider TGMT, for which the enrichment ratio turned out to be 3.1.

Regarding RRTE, the enrichment ratio is no more than 0.25.

Consider MGNK, for which the enrichment ratio was no more than 0.25.

As to VYIC, the enrichment ratio is no more than 0.25.

In the case of QFCS, the enrichment ratio was no more than 0.25.

Turning to GTRM, the enrichment ratio was no more than 0.25.

Regarding CPCI, the enrichment ratio was no more than 0.25.

Take HKLI: the enrichment ratio was no more than 0.25.

For NPLE, the enrichment ratio is no more than 0.25.

Consider QLTA, for which the enrichment ratio amounted to 3.23.

Take KFHP: the enrichment ratio was no more than 0.25.

With SEEV, the enrichment ratio worked out at 1.98.

As to WFCL, the enrichment ratio was no more than 0.25.

Regarding VHFK, the enrichment ratio is no more than 0.25.

For SRMD, the enrichment ratio is no more than 0.25.

For the variant RVAI, the enrichment ratio was no more than 0.25.

On to MAKF, for which the enrichment ratio is no more than 0.25.

For the variant MRSW, the enrichment ratio was no more than 0.25.

Turning to DHLN, the enrichment ratio was no more than 0.25.

EGKM: the enrichment ratio was no more than 0.25.

FFVH: the enrichment ratio was no more than 0.25.

In the case of LCRA, the enrichment ratio was no more than 0.25.

For DDYF, the enrichment ratio was no more than 0.25.

Regarding MNML, the enrichment ratio is 24.9.

Turning to GCDR, the enrichment ratio is no more than 0.25.

Consider QVER, for which the enrichment ratio was no more than 0.25.

Turning to NWMK, the enrichment ratio is no more than 0.25.

For the variant PFLT, the enrichment ratio is no more than 0.25.

CLSL: the enrichment ratio turned out to be 6.34.
